# According to the supplement of paper PMC8728848:
# The list shows a part of the results.
# Assays:
# Assay in all cases: glycan array binding signal (z-score within array); higher = stronger binding
# Details in all cases: glycan notation: IUPAC condensed, linker removed
# [1] = target: GlcNAc(b1-3)Gal(b1-3)GalNAc
# Outline: (§1)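 Arrays were curated from the Consortium for Functional Glycomics database, 3228 in total, and kept only where the protein sequence was available. Binding is expressed as a within-array Z-score. This score was averaged across arrays of the same protein sequence at different concentrations or buffers and across linkers, and negative values can be read as non-binding.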
# [2] = target: GlcNAc(b1-3)Gal(b1-4)Glc
# Outline: as §1
# [3] = target: GlcNAc(b1-3)Gal(b1-4)GlcNAc
# Outline: as §1
# [4] = target: GlcNAc(b1-3)Gal(b1-4)GlcNAc(b1-3)Gal(b1-4)GlcNAc
# Outline: as §1
# [5] = target: GlcNAc(b1-3)GalNAc
# Outline: as §1
# [6] = target: GlcNAc(b1-3)Man
# Outline: as §1
# [7] = target: GlcNAc(b1-3)[GlcNAc(b1-4)][GlcNAc(b1-6)]GlcNAc
# Outline: as §1
# [8] = target: GlcNAc(b1-3)[GlcNAc(b1-6)]Gal(b1-4)GlcNAc
# Outline: as §1
# [9] = target: GlcNAc(b1-3)[GlcNAc(b1-6)]GalNAc
# Outline: as §1
# [10] = target: GlcNAc(b1-4)Gal(b1-4)GlcNAc
# Outline: as §1
# [11] = target: GlcNAc(b1-4)GlcNAc
# Outline: as §1
# [12] = target: GlcNAc(b1-4)GlcNAc(b1-4)GlcNAc
# Outline: as §1
# [13] = target: GlcNAc(b1-4)GlcNAc(b1-4)GlcNAc(b1-4)GlcNAc(b1-4)GlcNAc
# Outline: as §1
# [14] = target: GlcNAc(b1-4)GlcNAc(b1-4)GlcNAc(b1-4)GlcNAc(b1-4)GlcNAc(b1-4)GlcNAc
# Outline: as §1
# [15] = target: GlcNAc(b1-4)[GlcNAc(b1-6)]GalNAc
# Outline: as §1
# [16] = target: GlcNAc(b1-6)Gal(b1-4)GlcNAc
# Outline: as §1
# [17] = target: GlcNAc(b1-6)GalNAc
# Outline: as §1
# [18] = target: GlcNAc3Prop(b1-4)GlcNAc
# Outline: as §1
# [19] = target: GlcNAc6S(b1-3)Gal(b1-4)GlcNAc
# Outline: as §1
# [20] = target: Kdn(a2-3)Gal(b1-3)GalNAc
# Outline: as §1
# [21] = target: Kdn(a2-3)Gal(b1-3)GlcNAc
# Outline: as §1
# [22] = target: Kdn(a2-3)Gal(b1-4)Glc
# Outline: as §1
# [23] = target: Kdn(a2-3)Gal(b1-4)GlcNAc
# Outline: as §1
# [24] = target: Kdn(a2-3)Gal(b1-4)[Fuc(a1-3)]GlcNAc
# Outline: as §1
# [25] = target: Kdn(a2-6)Gal(b1-4)GlcNAc
# Outline: as §1
# [26] = target: Man(a1-2)Man(a1-2)Man(a1-3)Man
# Outline: as §1
# [27] = target: Man(a1-2)Man(a1-2)Man(a1-6)[Man(a1-3)]Man
# Outline: as §1
# [28] = target: Man(a1-2)Man(a1-3)Man
# Outline: as §1
# [29] = target: Man(a1-2)Man(a1-3)[Man(a1-2)Man(a1-6)]Man
# Outline: as §1
# [30] = target: Man(a1-2)Man(a1-3)[Man(a1-2)Man(a1-6)]Man(a1-6)[Man(a1-2)Man(a1-2)Man(a1-3)]Man
# Outline: as §1
# [31] = target: Man(a1-2)Man(a1-3)[Man(a1-2)Man(a1-6)]Man(a1-6)[Man(a1-2)Man(a1-2)Man(a1-3)]Man(b1-4)GlcNAc(b1-4)GlcNAc
# Outline: as §1
# [32] = target: Man(a1-2)Man(a1-3)[Man(a1-6)]Man(a1-6)[Man(a1-2)Man(a1-3)]Man(b1-4)GlcNAc(b1-4)GlcNAc
# Outline: as §1
# [33] = target: Man(a1-2)Man(a1-6)[Man(a1-3)]Man(a1-6)[Man(a1-2)Man(a1-2)Man(a1-3)]Man
# Outline: as §1
# [34] = target: Man(a1-2)Man(a1-6)[Man(a1-3)]Man(a1-6)[Man(a1-2)Man(a1-2)Man(a1-3)]Man(b1-4)GlcNAc(b1-4)GlcNAc
# Outline: as §1
# [35] = target: Man(a1-3)[Man(a1-6)]Man
# Outline: as §1
# [36] = target: Man(a1-3)[Man(a1-6)]Man(a1-6)[Man(a1-2)Man(a1-3)]Man(b1-4)GlcNAc(b1-4)GlcNAc
# Outline: as §1
# [37] = target: Man(a1-3)[Man(a1-6)]Man(a1-6)[Man(a1-3)]Man
# Outline: as §1
# [38] = target: Man(a1-3)[Man(a1-6)]Man(a1-6)[Man(a1-3)]Man(b1-4)GlcNAc(b1-4)GlcNAc
# Outline: as §1
# [39] = target: Man(a1-3)[Man(a1-6)]Man(b1-4)GlcNAc(b1-4)GlcNAc
# Outline: as §1
# [40] = target: Man(a1-6)Man
# Outline: as §1
# [41] = target: Man(b1-4)GlcNAc
# Outline: as §1
# [42] = target: Neu5Ac(a2-3)Gal
# Outline: as §1
# [43] = target: Neu5Ac(a2-3)Gal(b1-3)GalNAc
# Outline: as §1
# [44] = target: Neu5Ac(a2-3)Gal(b1-3)GalNAc(b1-3)Gal(a1-4)Gal(b1-4)Glc
# Outline: as §1
# [45] = target: Neu5Ac(a2-3)Gal(b1-3)GalNAc(b1-3)Gal(b1-4)GlcNAc
# Outline: as §1
binder,measurement,setting,value
"Mincle (Homo sapiens), Q9ULY5 (protein) MNSSKSSETQCTERGCFSSQMFLWTVAGIPILFLSACFITRCVVTFRIFQTCDEKKFQLPENFTELSCYNYGSGSVKNCCPLNWEYFQSSCYFFSTDTISWALSLKNCSAMGAHLVVINSQEEQEFLSYKKPKMREFFIGLSDQVVEGQWQWVDGTPLTKSLSFWDVGEPNNIATLEDCATMRDSSNPRQNWNDVTCFLNYFRICEMVGINPLNKGKSL",glycan array binding signal (z-score),[1],-0.236
same,glycan array binding signal (z-score),[2],-0.3
same,glycan array binding signal (z-score),[3],-0.245
same,glycan array binding signal (z-score),[4],-0.06
same,glycan array binding signal (z-score),[5],-0.451
same,glycan array binding signal (z-score),[6],-0.399
same,glycan array binding signal (z-score),[7],-0.38
same,glycan array binding signal (z-score),[8],-0.457
same,glycan array binding signal (z-score),[9],-0.082
same,glycan array binding signal (z-score),[10],-0.45
same,glycan array binding signal (z-score),[11],-0.246
same,glycan array binding signal (z-score),[12],-0.246
same,glycan array binding signal (z-score),[13],0.253
same,glycan array binding signal (z-score),[14],-0.352
same,glycan array binding signal (z-score),[15],-0.437
same,glycan array binding signal (z-score),[16],-0.471
same,glycan array binding signal (z-score),[17],-0.548
same,glycan array binding signal (z-score),[18],-0.102
same,glycan array binding signal (z-score),[19],-0.321
same,glycan array binding signal (z-score),[20],0.09
same,glycan array binding signal (z-score),[21],-0.522
same,glycan array binding signal (z-score),[22],-0.346
same,glycan array binding signal (z-score),[23],-0.119
same,glycan array binding signal (z-score),[24],-0.369
same,glycan array binding signal (z-score),[25],-0.608
same,glycan array binding signal (z-score),[26],-0.471
same,glycan array binding signal (z-score),[27],0.06
same,glycan array binding signal (z-score),[28],-0.395
same,glycan array binding signal (z-score),[29],0.813
same,glycan array binding signal (z-score),[30],5
same,glycan array binding signal (z-score),[31],0.67
same,glycan array binding signal (z-score),[32],-0.26
same,glycan array binding signal (z-score),[33],0.047
same,glycan array binding signal (z-score),[34],-0.122
same,glycan array binding signal (z-score),[35],-0.323
same,glycan array binding signal (z-score),[36],0.708
same,glycan array binding signal (z-score),[37],-0.176
same,glycan array binding signal (z-score),[38],0.253
same,glycan array binding signal (z-score),[39],1.08
same,glycan array binding signal (z-score),[40],-0.037
same,glycan array binding signal (z-score),[41],-0.53
same,glycan array binding signal (z-score),[42],0.067
same,glycan array binding signal (z-score),[43],0.345
same,glycan array binding signal (z-score),[44],-0.553
same,glycan array binding signal (z-score),[45],0.287
